In the RNAGym collection of RNA variant scans (doi:10.1101/gad.245936.114):
Variants at the background level are over-represented here.

B1: tRNA (parent)
chain: CUCUCGGUAGCCAAGUUGGUUUAAGGCGCAAGACUUUAAUUUAUCACUACGAAAUCUUGAGAUCGGGCGUUCGACUCGCCCCCGGGAGAUUUUUUCCUCGAGCAA

Variants of: B1
Assay: nonsense suppression (GFP-seq) (ratio to wild type); higher = more function; SUP4oc tRNA, yeast GFP reporter sort-seq
Summary of the method: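 Each variant's nonsense suppression (GFPSEQ) is a cell-share-weighted bin median GFP/RFP relative to the unmutated parent tRNA. Yeast with genome-integrated tRNA variants from a ~3% random-mutation library, a galactose-driven GFP ochre reporter and RFP were grown in raffinose/galactose medium with 80 mg/L adenine, then sorted into GFP/RFP bins for Illumina sequencing. Variants needed ≥100 reads and ≥30 cells.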

Nonsense suppression, 1.11:
A24C C75G

Nonsense suppression, 0.927:
U22G C75A

Nonsense suppression, ≤ 0.026:
U22C A31U U70C
U22C A33C
U22C A33C G78A A89U
U22C A54G
U22C A54U A74G C79U
U22C C27A
U22C C27A G32U U35G G67U C80A
U22C C29A
U22C C29G A87G
U22C C29G A87U
U22C C34U C77A G84U
U22C C56G A62G
U22C C68A U70A
U22C C72G
U22C C77G
U22C C79G G86U
U22C C82A
U22C C82G G86A G88C
U22C G25U
U22C G26A
U22C G28U
U22C G32C G67A
U22C G32C U55A G69C G85C
U22C G59A A87U
U22C G59U
U22C G67A C81G
U22C G67C
U22C G67U
U22C G67U G69U U70G C79A
U22C G67U U76A C82G G88C
U22C G73U C80A
U22C G84C
U22C U35C U70A
U22C U55A C82U G86U
U22C U55G G59A G69U
U22C U57G
U22C U58C G84U
U22C U70A
U22G A24C G86C
U22G A31C U76A
U22G A31U U57A A74G C80U
U22G A33C
U22G A54G G73A
U22G A54U U57C
U22G A60U G69C G73A A74U
U22G A62C
U22G A62G C80U
U22G C27A
U22G C27G C29U A33C U76G
U22G C27U A33G C64A
U22G C27U C29U
U22G C29G C34A
U22G C34A G85A
U22G C34G A60G C75U
U22G C34U U35A
U22G C56U
U22G C56U C72A
U22G C75A A87C
U22G G25U C82U
U22G G25U G66U
U22G G26A G32U A54G G84C
U22G G32A G61C
U22G G32U C72G
U22G G61U G66C
U22G G65C A87U
U22G G66C
U22G G66C C68A G86A
U22G G69C
U22G G73C
U22G G73C A74U
U22G G78U C82A
U22G G86U
U22G G88U
U22G U35G U55C A74G
U22G U57C A74U
U22G U58A
U22G U58G U76C
U22G U71A
U22G U76G
A23C
A23C A24C
A23C A24G C29G
A23C A31C
A23C A31C G59A A60C
A23C A31C G86A
A23C A31U
A23C A33U U63A
A23C A54G G73U
A23C A54U
A23C A54U G88C
A23C A60G
A23C A60G A74G
A23C A60G U63C C81U G85A
A23C A62G C82A
A23C A62U G88U
A23C A74G
A23C A74U
A23C A89C
A23C C27A
A23C C27A U35G
A23C C29A G32C A33G G61C
A23C C29U
A23C C29U G73C
A23C C34A U70C
A23C C56A C64U
A23C C56G
A23C C68A
A23C C75U G78U G88A
A23C C77A
A23C C80G
A23C C81G G84A
A23C C83U
A23C G25A
A23C G25C C64A U76C G78U
A23C G26A
A23C G26U A62U U63C
A23C G28C
A23C G28C C56G A62G
A23C G32A G85A
A23C G32A U55A G59A G66C C80U
A23C G32C C34G G59U
A23C G59C G61A
A23C G59C G61C
A23C G59C G67C
A23C G61A
A23C G61A C64U A87G
A23C G61U
A23C G65C
A23C G66A
A23C G66U
A23C G67A C72U
A23C G67U C77U
A23C G78A C79A
A23C G84A
A23C G84C
A23C G84U
A23C G85C G88A
A23C G86C
A23C G88A
A23C G88C
A23C U63A G78C
A23C U70A G84U
A23C U76G
A23C U76G A89U
A23G
A23G A24G
A23G A24G A60C
A23G A24U C56U G61C C64U
A23G A24U G28C
A23G A24U G32C G59A C64U
A23G A30G
A23G A30G A60U A62C C72A
A23G A30G U63A G84C
A23G A31C G59U
A23G A31G U57C U58G G65C G85A
A23G A31U U55C G67U C72A
A23G A33U A87G
A23G A60C G86U
A23G A60U
A23G A62C
A23G A62C C72A C80G
A23G A62C C72A C80U
A23G A62U G84U
A23G A74U
A23G C27A C29A
A23G C27U G88A
A23G C29G U63C
A23G C29U A74C
A23G C34A
A23G C34A G69U A74U C75G
A23G C34G C56G U57G U58G
A23G C34G G66U A87U
A23G C56A U63G
A23G C56G G65A U71G
A23G C56U
A23G C56U U57C G84C
A23G C68A
A23G C68G A74G
A23G C72U
A23G G25A
A23G G25A A30U G66U A74U
A23G G25A G88C
A23G G25U
A23G G26C
A23G G26C G67A
A23G G26C U76G C79U G84U
A23G G28A G65A
A23G G28U
A23G G32C C81G
A23G G32U
A23G G59A C83A G88U
A23G G59C
A23G G59C C64G C77U G78A
A23G G59U A60C C72G
A23G G59U G73U
A23G G61U G73U
A23G G65A
A23G G65C G66U
A23G G67A C80A
A23G G69C
A23G G84C
A23G U35A
A23G U35A U57C
A23G U55A U71G
A23G U55C G66C
A23G U55G
A23G U57A U58G G61U
A23G U57C G61A C72G
A23G U57G G73A G78A
A23G U58A
A23G U63G
A23G U70C
A23G U71A
A23U
A23U A24C A30G A33G C80U
A23U A24C U70C
A23U A24G C64G
A23U A30C G61A U76G G85U
A23U A30U A33U G59A G73A
A23U A31G A33G G67C
A23U A31G G67U G84U
A23U A31U A62C C64U G86A
A23U A33G
A23U A33G C56U G84C
A23U A33G G67A C81U G85C
A23U A60C A62G
A23U A60C A62G U76C
A23U A60C A62G U76C G84U
A23U A62C
A23U A62U U71G
A23U A89C
A23U C27A G32U A62G A87U A89G
A23U C27G A60C U63A
A23U C29A G86U
A23U C29G
A23U C34A
A23U C34G
A23U C56A U63G
A23U C72A
A23U C72A C77G
A23U C80G
A23U G25A U35G
A23U G25A U57C C81G
A23U G28C
A23U G28U G78C
A23U G28U U55C
A23U G32A C72G
A23U G32A U70G
A23U G32U U63G C68A U70A A74C
A23U G59A
A23U G59A A74U
A23U G59A U76G
A23U G59C
A23U G65A G67C C72G G73U
A23U G65A G88C
A23U G67U
A23U G73C C83G
A23U G78C A87U
A23U G84C
A23U G85A
A23U U35C U70C G88A
A23U U35G
A23U U57A C82A A87G
A23U U57A G66A C68U
A23U U58A
A23U U58C G65A G67A G78A
A23U U63G C80U
A23U U71G A74G
A23U U76A
A23U U76C
A24C A30C C34G
A24C A30G G65C G69A C83A A87C
A24C A31C G78C
A24C A31G A62C U71C
A24C A33C G59A
A24C A62C U76G
A24C C27G
A24C C27G A62C U76G
A24C C27G C29U
A24C C27G C29U A62C U63G
A24C C29G A60G G65C
A24C C29G G61A U71C
A24C C34A G69U
A24C C34G
A24C C56U
A24C C79G G84C
A24C C80G
A24C G25U
A24C G25U G26U G69C
A24C G26U C83A
A24C G28A G66C
A24C G28C A30G
A24C G59U
A24C G65A C79G G85C
A24C G65A C83A
A24C G65A U76G
A24C G65U C75G G85U
A24C G66U
A24C G67C
A24C G67C G84U
A24C G67U G85U
A24C G67U G86C
A24C G69U
A24C G73A G86U
A24C G73C G84C
A24C G85C
A24C U35G
A24C U55A

Nonsense suppression, 0.241:
A23G A60C

Nonsense suppression, 0.0318:
U22G G78C

Nonsense suppression, 0.0265:
U22C G73A C80U

Nonsense suppression, 0.0289:
A24C G67U

Nonsense suppression, 0.0355:
A23G G78A

Nonsense suppression, 0.0872:
U22G A31U

Nonsense suppression, 1.02:
U22C U76C

Nonsense suppression, 0.939:
U22G U63A

Nonsense suppression, 0.0366:
A24C G65A

Nonsense suppression, 0.0266:
A24C G65U

Nonsense suppression, 0.0446:
A23G A31G

Nonsense suppression, 0.182:
A23G C68U

Nonsense suppression, 0.765:
A24C C68U

Nonsense suppression, 0.783:
A24C A30U A54C U58G C75A

Nonsense suppression, 0.207:
A23U U63A

Nonsense suppression, 0.479:
A24C A87G

Nonsense suppression, 0.0618:
A24C C72G

Nonsense suppression, 0.0269:
A24C A60C

Nonsense suppression, 0.112:
A24C A60U U63A

Nonsense suppression, 1.2:
U22C U63C

Nonsense suppression, 0.043:
A24C G32U

Nonsense suppression, 0.198:
A24C A54C

Nonsense suppression, 0.258:
A24C G85U

Nonsense suppression, 0.0509:
U22C C56U
